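The compound was tested at five concentrations on cells cultured in 96-well plates, with a 48-hour exposure period. GI50 marks 50% less growth. At the TGI there is no net growth.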 A value given as a limit tells only on which side of the number the result lay.

For the assay, the system named is NCI-H322M lung. The assay can be described thus: NCI anticancer screen, dose series, 48 h.
Turning to `O=C1C(Cl)=C(NCc2ccco2)C(=O)c2ccccc21`, the GI50 was 17.9 µM and the TGI is 42.5 µM.
`CN(Cc1cc(C(C)(C)C)cc(Br)c1O)Cc1cc(C(C)(C)C)cc(Br)c1O`: the TGI came to 17.8 µM.
For `CCN(CC)c1ccc(N=Nc2ccc(-c3nc4ccc[n+](C)c4o3)cc2)cc1`, the TGI was 30.5 µM.
`CN1C(=O)C2C(C1=O)C1(O)c3ccccc3C2(N)c2ccccc21` (stereo not drawn) yielded a TGI of more than 100 µM.
On to `NCCCNCCCCNC(=O)C(O)NC(=O)CCCCCCN=C(N)N` (stereo not drawn), for which the GI50 was 4950 µM and the TGI was more than 5000 µM.
As to `CC1=C(C(=O)Nc2ccccc2)C2(CCCCC2)C(C#N)=C(SCC(=O)Nc2ccc(Br)cc2)N1`, the TGI is more than 27.2 µM.
With `O=C(NC12CC3CC(CC(C3)C1)C2)C(=O)c1c[nH]c2ccccc12`, the TGI worked out at 32.3 µM.
`COC(=O)C(CCSC)NC(=O)Cc1ccc(C(=O)c2ccccc2)cc1` (stereo not drawn) returned a TGI of more than 100 µM.
`Cc1ccc2c(c1)-c1nc(N)c(C#N)c(-c3ccccc3)c1CCS2(=O)=O` registered a TGI of 90.6 µM.
As to `Cn1cc(C(=O)C[n+]2ccccc2)c2ccccc21`, the TGI was more than 100 µM.
Take `O=C1C[C@@H]2/C(=C(O)\C=C\c3ccccc3)C(=O)C=C[C@@H]2O1`: the GI50 is 1.88 µM and the TGI is 5.7 µM.
On to `Cc1nc2c(=O)n(C)ncc2[nH]1`, for which the TGI was more than 100 µM.
Same read-out and setting: as for `COc1ccc(-c2cc3[nH]nc(N)c3c(=O)o2)cc1`, the figure is more than 100 µM; as for `CCOC(=O)NC(Nc1ccc(C(=O)OCC)cc1)(C(F)(F)F)C(F)(F)F`, more than 100 µM.
With `O=c1c(-c2ccccc2)coc2cc(OC/C(=N/O)c3ccccc3)ccc12`, the GI50 was 16.5 µM and the TGI was 39.9 µM.
For `CC(=O)Nc1c(C)cc2c(nc3n2CCC3O)c1[N+](=O)[O-]` (stereo not drawn), the TGI was more than 100 µM.
In the case of `CCCCCCCCCCCCC(O)[C@H]1CC[C@H](C(O)CCCCCC(=O)CCCCC2CC(C(C)=O)C(=O)O2)O1` (stereo partly drawn), the GI50 was 8.48 µM and the TGI came to 66.9 µM.
Regarding `CSc1nc(SC)c2c(CO)c(Br)n(Cc3ccccc3)c2n1`, the TGI turned out to be 45.7 µM.
As for `CC(=O)Nc1ccc(C2SCc3nc4ccccc4n32)cc1` (stereo not drawn), the TGI was more than 100 µM.
`CCC(C#N)NCc1cccc(CNC(C#N)CC)c1` (stereo not drawn) displayed a TGI of more than 100 µM.
`COc1ccc(OCC(=O)O)c(C(=O)CCC(=O)O)c1` registered a TGI of more than 100 µM.
On to `CC(=O)OCc1ccc2oc(=O)c(C(=O)Oc3ccccc3)cc2c1`, for which the TGI is more than 100 µM.
Same read-out and setting: as for `CC(C)OP(=O)(NC(=S)c1ccccc1)OC(C)C`, the figure is more than 100 µM; as for `O=C1c2ccccc2S(=O)(=O)c2cc(-c3nn[nH]n3)ccc21`, more than 100 µM.
`COc1cc(/C=c2\sc3n(c2=O)C(c2ccc(Cl)cc2)C2=C(CCCC2C)N=3)cc(OC)c1OC` (stereo not drawn) showed a TGI of more than 100 µM.
Same read-out and setting: next, `O=c1cccccc1[O-].O=c1cccccc1[O-].O=c1cccccc1[O-].[La+3]`: more than 100 µM; `O=C(NNC(=S)NC1CCCCC1)c1csc(NC(=S)NC2CCCCC2)n1`: 29.4 µM.
Regarding `NC(N)=NS(=O)(=O)c1ccc(NCCc2c3ccccc3nc3ccccc23)cc1`, the TGI was more than 100 µM.
For the compound `Cc1ccc(NC(=O)c2cc(S(=O)(=O)Nc3nc4ncccc4[nH]3)c(SSc3cc(Cl)c(C(=O)Nc4ccc(C)cc4)cc3S(=O)(=O)Nc3nc4ncccc4[nH]3)cc2Cl)cc1`, the TGI was more than 100 µM.
Take `Oc1ccc2oc3ncc(Br)c(-c4ccccc4)c3c2c1`: the GI50 was more than 100 µM and the TGI is more than 100 µM.
`Clc1ccc(C(n2cc(Br)cn2)n2cc(Br)cn2)cc1` yielded a TGI of 30.2 µM.
The compound `COc1ccc2c(c1)CCc1c-2n(CCN2CCCCC2)c2ccc(OC)cc12` gave a TGI of more than 100 µM.
On to `C=C1CC2(OC1=O)C(=O)Nc1ccccc12` (stereo not drawn), for which the GI50 is 13.5 µM and the TGI came to 38.5 µM.
For `Cc1cc(N2CCOCC2)cc2[nH]c(-c3c(NC[C@@H](O)c4cccc(Cl)c4)cc[nH]c3=O)nc12`, the GI50 is 1.46 µM and the TGI turned out to be 13.7 µM.
In turn, `COc1ccccc1NC(=O)CC(=O)N/N=C/c1ccc(N(CCC#N)S(=O)(=O)c2ccccc2)cc1` showed a TGI of more than 100 µM.

The values are drawn from PubChem BioAssay (NCI).
